PubChem BioAssay AID894 (National Center for Advancing Translational Sciences (NCATS), 2007)
Out of some 150,000 compounds screened, about 6,500 (4.3%) were called active. This list was built around the results that the source calls inconclusive (neither active nor inactive); the mix of calls is not that of the screen. Calls follow the shape of the dose curve; as a rule, active = well fitted inhibition curve with a large enough effect (not every such curve was filed as active); inconclusive = small, poorly fitted or top-dose-only effect, or another doubt; inactive = no such curve, though single readings can be large or run the other way. No potency is given beside an inconclusive call; the fits are too rough. Some structures have more than one record in an assay (separate samples or runs), and their calls can disagree.

Each compound was assayed against 15-hydroxyprostaglandin dehydrogenase [NAD(+)] (Homo sapiens) (UniProt P15428) (assay: qHTS Assay for Inhibitors of HPGD (15-Hydroxyprostaglandin Dehydrogenase)). Conditions: purified HPGD, NADH fluorescence kinetic, PGE2 substrate; activity change, negative = inhibition: stronger effect = lower value.
In short: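 NADH formation kinetics: reaction with 30 uM PGE2 and 1 mM NAD+ (final), 20 nM enzyme, Tris-HCl pH 8 with Tween 20, after 15 min compound preincubation at room temperature. Fluorescence change, last versus first of five reads.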
% is scaled to controls: 0 for no effect and ±100 for the full control effect; potency is read from the fitted curve at half-maximal effect; tags tell the direction and shape of the fitted curve.

Chain of UniProt P15428 (P15428 whole entry, looked up): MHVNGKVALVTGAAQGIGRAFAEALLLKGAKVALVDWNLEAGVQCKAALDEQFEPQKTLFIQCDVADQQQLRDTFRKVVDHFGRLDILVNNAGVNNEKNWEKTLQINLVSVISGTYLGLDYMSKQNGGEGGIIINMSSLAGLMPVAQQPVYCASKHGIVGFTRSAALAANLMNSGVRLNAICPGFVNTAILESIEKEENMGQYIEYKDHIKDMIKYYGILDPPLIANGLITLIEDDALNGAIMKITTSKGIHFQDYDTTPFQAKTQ

**Q.** Which Potency does the source give for Cc1[nH]n(-c2ccccc2)c(=S)c1C=NCCCN=Cc1c(C)[nH]n(-c2ccccc2)c1=S here?
**A.** active: 28.2 µM

**Q.** For CCOc1ccc(N=c2oc3cc(O)ccc3cc2C(=O)NCC2CCCO2)cc1 (stereo not given), which Potency is on record?
**A.** inconclusive [inhibitor, partial curve]

**Q.** For O=C(COC(=O)c1ccccc1)NCc1cccs1, which Potency is on record?
**A.** inconclusive [inhibitor, partial curve]

**Q.** Which Potency does the source give for Cc1cc(=O)[nH]c(SCC(=O)c2ccccc2)c1C#N here?
**A.** inconclusive [inhibitor, single point]

**Q.** With CCOC(=O)CCc1c(C)c2ccc(OCC)c(C)c2oc1=O as the compound, how does the Potency read?
**A.** inconclusive [inhibitor, full curve]

**Q.** With CC1CC(C)CN(CCOc2cccc(Cl)c2Cl)C1 (stereo not given) as the compound, how does the activity change, negative = inhibition read?
**A.** inactive: -0.558%

**Q.** Which activity change, negative = inhibition does the source give for Cc1nnc(C)c2c(C)n(C(C)c3ccccc3)c(C)c12 (stereo not given) here?
**A.** inactive: -14.7%

**Q.** For O=c1[nH]c(=O)n(Cc2ccco2)c2c1C(C(F)(F)F)(C(F)(F)F)N=C(Cc1ccccc1)N2, which Potency is on record?
**A.** inconclusive [inhibitor, single point]

**Q.** How did the Potency turn out when COc1ccc(-c2nc3c(=O)n(C)c(=O)[nH]c3n2CCc2ccccc2)cc1 was run?
**A.** inconclusive [inhibitor, full curve]

**Q.** For CC(=O)Nc1ccc(S(=O)(=O)NC2(C(F)(F)F)C(=O)Nc3c2c(=O)[nH]c(=O)n3Cc2ccccc2)cc1 (stereo not given), which Potency is on record?
**A.** active: 17.8 µM

**Q.** How did the Potency turn out when Cc1nn(Cc2ccc(Cl)c(Cl)c2)c(C)c1NC(=O)c1cc(-c2ccc3c(c2)OCO3)on1 was run?
**A.** inconclusive [inhibitor, partial curve]

**Q.** Which Potency does the source give for CCOC(=O)c1cc(-c2ccccc2)sc1NC(=O)CC here?
**A.** inconclusive [inhibitor, single point]

**Q.** Which Potency does the source give for N#CC(C#N)=NNc1ccc(S(=O)(=O)N2CCCCC2)cc1 here?
**A.** active: 31.6 µM

**Q.** Which Potency does the source give for S=c1[nH]nc(CSc2nc3ccccc3s2)n1Cc1ccccc1 here?
**A.** active: 12.6 µM

**Q.** With CC1CCc2c(sc3nc(SCC(=O)NCc4ccco4)nc(N)c23)C1 (stereo not given) as the compound, how does the Potency read?
**A.** active: 14.1 µM

**Q.** How did the Potency turn out when O=C(Nc1ccc(Oc2cccc3ccccc23)cc1)c1ccco1 was run?
**A.** inconclusive [inhibitor, partial curve]

**Q.** Which Potency does the source give for COc1ccc(OC)c(C2=Nn3c(nnc3-c3cccc(OC(C)C)c3)SC2)c1 here?
**A.** inconclusive [inhibitor, single point]

**Q.** CCCn1c(=O)[nH]c(=O)c2c1nc(-c1ccc(OC(F)F)c(OC)c1)n2CCOC was tested. Which Potency did it give?
**A.** inconclusive [inhibitor, partial curve]

**Q.** For Cc1nnc(SC(=O)N2c3ccccc3Sc3ccccc32)s1, which Potency is on record?
**A.** inconclusive [inhibitor, partial curve]

**Q.** For CCN(CC)C(=O)CC(c1ccc(F)cc1)c1ccc(OC)cc1 (stereo not given), which Potency is on record?
**A.** inconclusive [inhibitor, partial curve]

**Q.** For CC(=O)c1cc(CC=C(C)C)c(O)cc1O, which Potency is on record?
**A.** active: 12.6 µM

**Q.** For O=C(CSc1nnc(CNC(=O)C23CC4CC(CC(C4)C2)C3)n1-c1ccccc1)Nc1ccccc1, which activity change, negative = inhibition is on record?
**A.** inactive: 1.25%

**Q.** With CN1CCN(C(=O)c2ccc3c(c2)OCCO3)CC1 as the compound, how does the Potency read?
**A.** active: 15.8 µM

**Q.** Cc1nc2ccccc2n1/N=C/c1ccc([N+](=O)[O-])s1 was tested. Which activity change, negative = inhibition did it give?
**A.** inactive: -4.18%

**Q.** For CCOC(=O)Nc1ccc(C(=O)Oc2ccccc2)c(O)c1, which Potency is on record?
**A.** inconclusive [inhibitor, single point]

**Q.** For Cc1cc(C(F)F)n2ncc(C(=O)N3CCCCC3)c2n1, which Potency is on record?
**A.** active: 11.2 µM

**Q.** Cc1ccc(CN2C(=O)CCC2C(=O)NCCCN2CCOCC2)cc1 (stereo not given) was tested. Which activity change, negative = inhibition did it give?
**A.** inactive: -0.458%

**Q.** With COC(=O)c1ccc(NC(=O)CN2C(=O)CCC2=O)cc1 as the compound, how does the Potency read?
**A.** active: 31.6 µM

**Q.** O=C(O)/C=C/c1cn(-c2ncc(C(F)(F)F)cc2Cl)c2ccccc12 was tested. Which Potency did it give?
**A.** active: 2 µM

**Q.** Cc1cc(C(=O)CSc2nc3ccccc3c(=O)n2C)c(C)n1Cc1ccc2c(c1)OCO2 was tested. Which activity change, negative = inhibition did it give?
**A.** inactive: -23.5%

**Q.** With NS(=O)(=O)c1ccc(N2N=C(c3ccc(Br)cc3)CC2c2ccc(F)cc2)cc1 (stereo not given) as the compound, how does the Potency read?
**A.** inconclusive [inhibitor, partial curve]

**Q.** For Cc1cc(C)n(-c2nc(NCC3CCCO3)c3c4c(sc3n2)COC(C)(C)C4)n1 (stereo not given), which Potency is on record?
**A.** inconclusive [inhibitor, partial curve]

**Q.** Which Potency does the source give for CC1CCN(C(=O)CCc2ccc(Oc3cc([N+](=O)[O-])cc([N+](=O)[O-])c3)cc2)CC1 here?
**A.** active: 1 µM

**Q.** Which Potency does the source give for N#Cc1c(C(F)(F)F)cc(-c2cccs2)nc1SCc1ccc(Cl)nc1 here?
**A.** inconclusive [inhibitor, partial curve]

**Q.** Which Potency does the source give for CCCCOC(=O)CSCC(=O)N1N=C(c2cccs2)CC1c1ccc(F)cc1 (stereo not given) here?
**A.** inconclusive [inhibitor, partial curve]

**Q.** O=C(c1ccc(F)cc1)C1CCN(CCn2c(=O)[nH]c3ccccc3c2=O)CC1 was tested. Which Potency did it give?
**A.** active: 3.55 µM

**Q.** With NS(=O)(=O)c1ccc(N=Nc2nc3[nH]cnc(=S)c3[nH]2)cc1 as the compound, how does the Potency read?
**A.** inconclusive [inhibitor, partial curve]

**Q.** COc1ccc2c(c1)c1ncn(CCN3CCCCC3)c(=O)c1n2C was tested. Which Potency did it give?
**A.** inconclusive [inhibitor, partial curve]

**Q.** COc1ccc(CSCC(=O)N/N=C/c2ccc(OCC(=O)N3CCCCC3)cc2)cc1 was tested. Which Potency did it give?
**A.** inconclusive [inhibitor, partial curve]

**Q.** How did the activity change, negative = inhibition turn out when O=C(CN1C(=O)c2ccccc2C1=O)Nc1ccc(S(=O)(=O)NCC2CCCO2)cc1 (stereo not given) was run?
**A.** inactive: -17.2%

**Q.** With FC(F)(F)C(Oc1nc(NC2CCCCC2)nc(N2CCOCC2)n1)C(F)(F)F as the compound, how does the Potency read?
**A.** inconclusive [inhibitor, single point]

**Q.** CCn1c(SCC(=O)N2CCCC2)nc2ccccc2c1=O was tested. Which Potency did it give?
**A.** inconclusive [inhibitor, partial curve, poor fit]

**Q.** COC(=O)Cn1nnc(-c2cccc(OC)c2)n1 was tested. Which activity change, negative = inhibition did it give?
**A.** inactive: -5.89%

**Q.** COc1ccc(Cl)cc1Nc1ncnc2sc(C)c(S(=O)(=O)N3CCC(C)CC3)c12 was tested. Which Potency did it give?
**A.** inconclusive [inhibitor, partial curve]

**Q.** How did the Potency turn out when COc1ccc(NC(=O)c2c(Nc3ccccc3)sc(C(=O)c3ccc(F)cc3)c2N)cc1 was run?
**A.** inconclusive [inhibitor, partial curve]
